# Measured values as given in the supplement of paper PMC8728848.
# Some of the results follow.
# Key:
# Test in all cases: glycan array binding signal (z-score within array); higher = stronger binding
# Settings in all cases: glycan notation: IUPAC condensed, linker removed
# [1] = target: Glc(b1-4)Glc
# Outline: (§1)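 The Consortium for Functional Glycomics database supplied 3228 glycan arrays, of which those lacking an available protein sequence were dropped. The binding signal, a within-array Z-score, was averaged across arrays of the same protein sequence and across linkers. Negative scores can be read as non-binding.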
# [2] = target: Glc(b1-6)Glc
# Outline: as §1
# [3] = target: GlcA(b1-3)Gal
# Outline: as §1
# [4] = target: GlcA(b1-3)GlcNAc
# Outline: as §1
# [5] = target: GlcA(b1-6)Gal
# Outline: as §1
# [6] = target: GlcA3S(b1-3)Gal(b1-4)GlcNAc(b1-2)Man
# Outline: as §1
# [7] = target: GlcA3S(b1-3)Gal(b1-4)GlcNAc(b1-3)Gal(b1-4)Glc
# Outline: as §1
# [8] = target: GlcNAc(a1-3)Gal(b1-4)GlcNAc
# Outline: as §1
# [9] = target: GlcNAc(a1-4)Gal(b1-3)GlcNAc
# Outline: as §1
# [10] = target: GlcNAc(a1-4)Gal(b1-4)GalNAc
# Outline: as §1
# [11] = target: GlcNAc(a1-4)Gal(b1-4)GlcNAc
# Outline: as §1
# [12] = target: GlcNAc(a1-4)Gal(b1-4)GlcNAc(b1-3)Gal(b1-4)Glc
# Outline: as §1
# [13] = target: GlcNAc(a1-4)Gal(b1-4)GlcNAc(b1-3)Gal(b1-4)GlcNAc
# Outline: as §1
# [14] = target: GlcNAc(a1-4)Gal(b1-4)GlcNAc(b1-3)Gal(b1-4)GlcNAc(b1-3)Gal(b1-4)GlcNAc
# Outline: as §1
# [15] = target: GlcNAc(a1-4)Gal(b1-4)GlcNAc(b1-3)Gal(b1-4)[Fuc(a1-3)]GlcNAc(b1-3)Gal(b1-4)[Fuc(a1-3)]GlcNAc
# Outline: as §1
# [16] = target: GlcNAc(a1-6)Gal(b1-4)GlcNAc
# Outline: as §1
# [17] = target: GlcNAc(b1-2)Gal(b1-3)GalNAc
# Outline: as §1
# [18] = target: GlcNAc(b1-2)Man(a1-3)[GlcNAc(b1-2)Man(a1-6)]Man(b1-4)GlcNAc(b1-4)GlcNAc
# Outline: as §1
# [19] = target: GlcNAc(b1-2)Man(a1-3)[GlcNAc(b1-2)Man(a1-6)]Man(b1-4)GlcNAc(b1-4)[Fuc(a1-6)]GlcNAc
# Outline: as §1
# [20] = target: GlcNAc(b1-2)Man(a1-3)[GlcNAc(b1-4)][GlcNAc(b1-2)Man(a1-6)]Man(b1-4)GlcNAc(b1-4)GlcNAc
# Outline: as §1
# [21] = target: GlcNAc(b1-2)Man(a1-3)[GlcNAc(b1-4)][GlcNAc(b1-2)Man(a1-6)]Man(b1-4)GlcNAc(b1-4)[Fuc(a1-6)]GlcNAc
# Outline: as §1
# [22] = target: GlcNAc(b1-2)[GlcNAc(b1-4)]Man(a1-3)[GlcNAc(b1-2)Man(a1-6)]Man(b1-4)GlcNAc(b1-4)GlcNAc
# Outline: as §1
# [23] = target: GlcNAc(b1-2)[GlcNAc(b1-4)]Man(a1-3)[GlcNAc(b1-4)][GlcNAc(b1-2)Man(a1-6)]Man(b1-4)GlcNAc(b1-4)GlcNAc
# Outline: as §1
# [24] = target: GlcNAc(b1-2)[GlcNAc(b1-4)]Man(a1-3)[GlcNAc(b1-4)][GlcNAc(b1-2)[GlcNAc(b1-6)]Man(a1-6)]Man(b1-4)GlcNAc(b1-4)GlcNAc
# Outline: as §1
# [25] = target: GlcNAc(b1-2)[GlcNAc(b1-4)]Man(a1-3)[GlcNAc(b1-4)][GlcNAc(b1-2)[GlcNAc(b1-6)]Man(a1-6)]Man(b1-4)GlcNAc(b1-4)[Fuc(a1-6)]GlcNAc
# Outline: as §1
# [26] = target: GlcNAc(b1-2)[GlcNAc(b1-6)]Man(a1-6)[GlcNAc(b1-2)Man(a1-3)]Man(b1-4)GlcNAc(b1-4)GlcNAc
# Outline: as §1
# [27] = target: GlcNAc(b1-2)[GlcNAc(b1-6)]Man(a1-6)[GlcNAc(b1-2)Man(a1-3)]Man(b1-4)GlcNAc(b1-4)[Fuc(a1-6)]GlcNAc
# Outline: as §1
# [28] = target: GlcNAc(b1-2)[GlcNAc(b1-6)]Man(a1-6)[GlcNAc(b1-4)][GlcNAc(b1-2)Man(a1-3)]Man(b1-4)GlcNAc(b1-4)GlcNAc
# Outline: as §1
# [29] = target: GlcNAc(b1-3)Fuc
# Outline: as §1
# [30] = target: GlcNAc(b1-3)Gal
# Outline: as §1
# [31] = target: GlcNAc(b1-3)Gal(b1-3)GalNAc
# Outline: as §1
# [32] = target: GlcNAc(b1-3)Gal(b1-4)Glc
# Outline: as §1
# [33] = target: GlcNAc(b1-3)Gal(b1-4)GlcNAc
# Outline: as §1
# [34] = target: GlcNAc(b1-3)Gal(b1-4)GlcNAc(b1-2)Man(a1-3)[GlcNAc(b1-3)Gal(b1-4)GlcNAc(b1-2)Man(a1-6)]Man(b1-4)GlcNAc(b1-4)GlcNAc
# Outline: as §1
# [35] = target: GlcNAc(b1-3)Gal(b1-4)GlcNAc(b1-2)Man(a1-3)[GlcNAc(b1-3)Gal(b1-4)GlcNAc(b1-2)Man(a1-6)]Man(b1-4)GlcNAc(b1-4)[Fuc(a1-6)]GlcNAc
# Outline: as §1
# [36] = target: GlcNAc(b1-3)Gal(b1-4)GlcNAc(b1-2)[GlcNAc(b1-3)Gal(b1-4)GlcNAc(b1-6)]Man(a1-6)[GlcNAc(b1-3)Gal(b1-4)GlcNAc(b1-2)Man(a1-3)]Man(b1-4)GlcNAc(b1-4)GlcNAc
# Outline: as §1
# [37] = target: GlcNAc(b1-3)Gal(b1-4)GlcNAc(b1-3)Gal(b1-4)GlcNAc
# Outline: as §1
# [38] = target: GlcNAc(b1-3)Gal(b1-4)GlcNAc(b1-3)Gal(b1-4)GlcNAc(b1-2)Man(a1-3)[GlcNAc(b1-3)Gal(b1-4)GlcNAc(b1-3)Gal(b1-4)GlcNAc(b1-2)Man(a1-6)]Man(b1-4)GlcNAc(b1-4)GlcNAc
# Outline: as §1
# [39] = target: GlcNAc(b1-3)Gal(b1-4)GlcNAc(b1-3)Gal(b1-4)GlcNAc(b1-2)Man(a1-3)[GlcNAc(b1-3)Gal(b1-4)GlcNAc(b1-3)Gal(b1-4)GlcNAc(b1-2)Man(a1-6)]Man(b1-4)GlcNAc(b1-4)[Fuc(a1-6)]GlcNAc
# Outline: as §1
# [40] = target: GlcNAc(b1-3)Gal(b1-4)GlcNAc(b1-3)Gal(b1-4)GlcNAc(b1-2)[GlcNAc(b1-3)Gal(b1-4)GlcNAc(b1-3)Gal(b1-4)GlcNAc(b1-6)]Man(a1-6)[GlcNAc(b1-3)Gal(b1-4)GlcNAc(b1-3)Gal(b1-4)GlcNAc(b1-2)Man(a1-3)]Man(b1-4)GlcNAc(b1-4)[Fuc(a1-6)]GlcNAc
# Outline: as §1
# [41] = target: GlcNAc(b1-3)Gal(b1-4)GlcNAc(b1-3)Gal(b1-4)GlcNAc(b1-3)Gal(b1-4)GlcNAc(b1-2)Man(a1-3)[GlcNAc(b1-3)Gal(b1-4)GlcNAc(b1-3)Gal(b1-4)GlcNAc(b1-3)Gal(b1-4)GlcNAc(b1-2)Man(a1-6)]Man(b1-4)GlcNAc(b1-4)GlcNAc
# Outline: as §1
# [42] = target: GlcNAc(b1-3)Gal(b1-4)GlcNAc(b1-3)Gal(b1-4)GlcNAc(b1-3)Gal(b1-4)GlcNAc(b1-2)Man(a1-3)[GlcNAc(b1-3)Gal(b1-4)GlcNAc(b1-3)Gal(b1-4)GlcNAc(b1-3)Gal(b1-4)GlcNAc(b1-2)Man(a1-6)]Man(b1-4)GlcNAc(b1-4)[Fuc(a1-6)]GlcNAc
# Outline: as §1
# [43] = target: GlcNAc(b1-3)Gal(b1-4)GlcNAc(b1-3)Gal(b1-4)GlcNAc(b1-3)Gal(b1-4)GlcNAc(b1-2)[GlcNAc(b1-3)Gal(b1-4)GlcNAc(b1-3)Gal(b1-4)GlcNAc(b1-3)Gal(b1-4)GlcNAc(b1-6)]Man(a1-6)[GlcNAc(b1-3)Gal(b1-4)GlcNAc(b1-3)Gal(b1-4)GlcNAc(b1-3)Gal(b1-4)GlcNAc(b1-2)Man(a1-3)]Man(b1-4)GlcNAc(b1-4)[Fuc(a1-6)]GlcNAc
# Outline: as §1
# [44] = target: GlcNAc(b1-3)Gal(b1-4)GlcNAc(b1-3)Gal(b1-4)GlcNAc(b1-3)Gal(b1-4)GlcNAc(b1-3)Gal(b1-4)GlcNAc(b1-2)Man(a1-3)[GlcNAc(b1-3)Gal(b1-4)GlcNAc(b1-3)Gal(b1-4)GlcNAc(b1-3)Gal(b1-4)GlcNAc(b1-3)Gal(b1-4)GlcNAc(b1-2)Man(a1-6)]Man(b1-4)GlcNAc(b1-4)GlcNAc
# Outline: as §1
# [45] = target: GlcNAc(b1-3)Gal(b1-4)GlcNAc(b1-3)Gal(b1-4)GlcNAc(b1-3)Gal(b1-4)GlcNAc(b1-3)Gal(b1-4)GlcNAc(b1-2)Man(a1-3)[GlcNAc(b1-3)Gal(b1-4)GlcNAc(b1-3)Gal(b1-4)GlcNAc(b1-3)Gal(b1-4)GlcNAc(b1-3)Gal(b1-4)GlcNAc(b1-2)Man(a1-6)]Man(b1-4)GlcNAc(b1-4)[Fuc(a1-6)]GlcNAc
# Outline: as §1
binder,measurement,setting,value
CpGal16 (Clavelina picta) (protein) MAKMITNYVGKRIECIMVATDMMSTVFSLASATGDLPFYINFRQRENSIVMNTRVHGKWQYEKSQSSGGMNFYEPFRLVVEVRPSVFKVTVSTMGEEDGITFNLQYSQITIKPDEIVAMHLGYCNLRSELLVTDL,glycan array binding signal (z-score),[1],-0.41
same,glycan array binding signal (z-score),[2],-0.49
same,glycan array binding signal (z-score),[3],-0.261
same,glycan array binding signal (z-score),[4],-0.4
same,glycan array binding signal (z-score),[5],-0.293
same,glycan array binding signal (z-score),[6],-0.41
same,glycan array binding signal (z-score),[7],-0.213
same,glycan array binding signal (z-score),[8],-0.249
same,glycan array binding signal (z-score),[9],-0.389
same,glycan array binding signal (z-score),[10],-0.312
same,glycan array binding signal (z-score),[11],-0.404
same,glycan array binding signal (z-score),[12],-0.434
same,glycan array binding signal (z-score),[13],-0.32
same,glycan array binding signal (z-score),[14],-0.443
same,glycan array binding signal (z-score),[15],-0.21
same,glycan array binding signal (z-score),[16],-0.409
same,glycan array binding signal (z-score),[17],-0.363
same,glycan array binding signal (z-score),[18],-0.418
same,glycan array binding signal (z-score),[19],-0.14
same,glycan array binding signal (z-score),[20],-0.442
same,glycan array binding signal (z-score),[21],-0.445
same,glycan array binding signal (z-score),[22],-0.097
same,glycan array binding signal (z-score),[23],-0.264
same,glycan array binding signal (z-score),[24],-0.389
same,glycan array binding signal (z-score),[25],-0.446
same,glycan array binding signal (z-score),[26],-0.344
same,glycan array binding signal (z-score),[27],-0.177
same,glycan array binding signal (z-score),[28],-0.498
same,glycan array binding signal (z-score),[29],-0.418
same,glycan array binding signal (z-score),[30],-0.323
same,glycan array binding signal (z-score),[31],-0.336
same,glycan array binding signal (z-score),[32],-0.381
same,glycan array binding signal (z-score),[33],-0.469
same,glycan array binding signal (z-score),[34],-0.207
same,glycan array binding signal (z-score),[35],-0.048
same,glycan array binding signal (z-score),[36],0.281
same,glycan array binding signal (z-score),[37],-0.579
same,glycan array binding signal (z-score),[38],0.285
same,glycan array binding signal (z-score),[39],0.179
same,glycan array binding signal (z-score),[40],0.153
same,glycan array binding signal (z-score),[41],-0.106
same,glycan array binding signal (z-score),[42],0.36
same,glycan array binding signal (z-score),[43],0.058
same,glycan array binding signal (z-score),[44],0.022
same,glycan array binding signal (z-score),[45],0.265
